The full ranking holds about 81,000 sequences; the median of “one-hybrid fitness for binding parS DNA” is about -0.17, and the highest 2% start at about 0.51. The list shows a part of the results.
B1: Caulobacter ParB omega fusion; a variant is named by its letters at X, in order, B8GW30 (parent)
chain: MESVVVGEPGMSEGRRGLGRGLSALLGEVDAAPAQAPGEQLGGSREAPIEILQRNPDQPRRTFREEDLEDLSNSIREKGVLQPILVRPSPDTAGEYQIVAGERAWRAAQRAGLKTVPIMVRELDDLAVLEIGIIENVQRADLNVLEEALSYKVLMEKFERTQENIAQTIGKSXSHVANXMRLLXLPDEVQSYLVSGELTAXHARAIAAAADPVALAKQIIEGGLSVRETEALARKAPNLSAGKSKGGRPPRVKDTDTQALESDLSSVLGLDVSIDHRGSTGTLTITYATLEQLDDLCNRLTRGI

Variants of: B1
Test: one-hybrid fitness for binding parS DNA (scaled: cognate 1, non-cognate 0); higher = stronger binding
Details: with parS DNA site
Procedure, shortened: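 Pre- and post-selection plasmids were Illumina-sequenced, three replicate libraries were pooled, and any variant with under 10 reads was removed. The libraries were Caulobacter ParB with four specificity codons randomised, selected in E. coli USO through a HIS3 reporter whose site is 19 bp from the promoter. Cells grew 48 hours at 37°C on M9 without histidine, with 0.1 mM IPTG and 5 mM 3-AT. Fitness is the log change in variant-to-wild-type read ratio, rescaled against cognate and non-cognate.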

one-hybrid fitness for binding parS DNA, 0.636:
RWCC

one-hybrid fitness for binding parS DNA, 0.502:
RFPG

one-hybrid fitness for binding parS DNA, ≤ 0.2:
WKPE
LYGR
VAPL
GHAT
ALSW
NASM
MYRS
KWWS
GSQW
QSLK
CEVS
AWTN
MCAC
CTDN
HRSR
PPDE
ATIC
ITPY
AGEV
SIAF
EVQT
TKVC
HKFR
LNVV
GRKG
TLLW
WTQT
NASN
QSDA
VFQM
KNLL
HGMT
CQCG
SLNG
DQWE
SMDS
NTKV
LPLT
AGWW
ECVR
SADG
WWDI
KTQT
RIYV
EELS
QFCV
IIVS
PHIN
PISP
VGLV
VHAA
YMDW
GQHG
TVIT
GNIR
LIES
LTQP
QNCK
EMPW
HFDP
DEYT
DCQT
YLWG
WFPH
DPYV
NRRG
VWGS
AFYG
PTDG
FTWR
NYYC
SRGY
TMKT
PFAR
PNTK
TEED
DDAI
LGGK
VPAC
SWQF
TATD
IFDG
FSMG
QHVA
HAQP
SWRA
QCMS
APAT
TPIR
NNAR
KCKA
PERL
DIPA

one-hybrid fitness for binding parS DNA, 0.229:
RMMI

one-hybrid fitness for binding parS DNA, 0.202:
RKSM

one-hybrid fitness for binding parS DNA, 0.238:
RNSM
